In all, about 73,000 compounds went through this assay and about 1,800 (2.5%) were called active. The inconclusive results got no clear call from the source; some entries with a clear call stand among them for comparison. The call rests on the fitted dose curve; in most records, active means well fitted activation curve with a large enough effect; inconclusive means small, poorly fitted or top-dose-only effect; inactive means no such curve, though single readings can be large or run the other way. No potency is given beside an inconclusive call; the fits are too rough.
Experiment: qHTS Assay for Agonists of the Thyroid Stimulating Hormone Receptor: Activators of Intracellular cAMP Concentrations in Parental HEK 293; further: nearly all actives have a fitted effect of over 55% in size; on activation: % of control where 0% means no effect
Settings: parental HEK293 CNG cAMP sensor, membrane potential fluorescence; activation: at 57.1 µM (top of the series) unless noted
How it was run: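 Parental HEK 293 cells stably expressing a modified CNG channel (no TSHR) report cAMP rise as membrane depolarization. Membrane potential dye with 100 uM RO 20-1724 was loaded for 60 min at room temperature, then compound added for 30 min; fluorescence read at 590 nm.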
Potency means the concentration at half of the fitted maximal effect; tags describe the fitted curve by direction and shape.

| Structure (SMILES) | Potency | activation |
| --- | --- | --- |
| O=C(NCCN1CCCC1)c1ccc(CS(=O)(=O)c2c(Cl)cccc2Cl)o1 | inconclusive [activator, single point] |  |
| Cc1nc2cnc(N(C)C)nc2n(Cc2ccc(F)cc2)c1=O | inconclusive [activator, full curve, poor fit] |  |
| COC(=O)[C@@]1(Cc2ccc(OC)cc2)[C@H]2c3cc(C(=O)N(C)C)n(Cc4nc5ccccc5[nH]4)c3C[C@H]2CN1C(=O)c1ccccc1 | inconclusive [activator, single point] |  |
| CCCCNC(=O)c1sc2nc(C)cc(COC)c2c1-n1cccc1 | active: 15.8 µM |  |
| O=C1COc2ccccc2N1Cc1ccccc1Cl | inconclusive [activator, single point] |  |
| CCCNC(=O)OC[C@@H]1O[C@H](CCO/N=C\[C@@H](C)[C@H](OCc2ccccc2)C(C)C)C=C[C@@H]1Oc1ccc(OC)cc1 |  | inactive: 4.9% [at 11.4 µM] |
| O=C1C2ON(c3ccccc3)C(c3ccccc3F)C2C(=O)N1c1ccccc1 (stereo not given) | inconclusive [activator, partial curve] |  |
| COc1ccc(NC(=O)c2c(C)oc3c2CCCC3)cc1 | inconclusive [activator, partial curve] |  |
| CC(OC(=O)c1cccs1)C(=O)NCc1ccccc1 (stereo not given) | inconclusive [activator, single point] |  |
| CSc1ccc(CN(C)CC(=O)NC(=O)NC(C)(C)C)cc1 | inconclusive [activator, full curve, poor fit] |  |
| O=C1CCC(C(=O)N(Cc2ccco2)C2(C(=O)NC3CCCC3)CCCCC2)N1 (stereo not given) | inconclusive [activator, full curve] |  |
| Clc1ccc(-c2nnn(Cc3nc4ccccc4s3)n2)cc1 | inconclusive [activator, partial curve] |  |
| COc1ccc(N(CC(=O)Nc2ccc3c(c2)OCCO3)S(=O)(=O)c2c(C)noc2C)cc1 | inactive |  |
| O=C1C2=C(Nc3cc([N+](=O)[O-])ccc3N2)O[C@@H]1c1c[nH]c2ccc(COc3ccccc3)cc12 |  | inactive: -4.02% [at 11.4 µM] |
| CCn1c(SC)nnc1-c1sc2cc(Cl)ccc2c1Cl | inconclusive [activator, single point] |  |
| COc1ccc(-c2noc(CCC(=O)N3CCN(c4cccc(C(F)(F)F)c4)CC3)n2)cc1 | inconclusive [activator, partial curve] |  |
| CCc1ccc(C2C(C(C)=O)=C(C(=O)OC)Nc3nnnn32)cc1 (stereo not given) | inconclusive [activator, single point] |  |
| CCCC(=O)Nc1cccn(Cc2ccccc2Br)c1=O | inconclusive [activator, single point] |  |
| COCCn1c(=O)c(-c2cn(C)c3ccccc23)nc2cnc(Oc3ccc(OC)cc3)nc21 | inconclusive [activator, single point] |  |
| CC1=C(C(=O)OC(C)C)C(c2ccc(N(C)C)cc2)C2=C(CC(C)(C)CC2=O)N1 (stereo not given) | inconclusive [activator, single point] |  |
| Cc1cc(N(C)Cc2ccccc2)nc(-c2ccccc2)n1 | inconclusive [activator, partial curve] |  |
| O=C(O)CCCC(=O)NCCCc1ccccc1 |  | inactive: 5.98% [at 11.4 µM] |

| Structure (SMILES) | Potency | activation |
| --- | --- | --- |
| CCn1c(=S)sc2c(=O)n(-c3ccccc3)c(SCC(=O)NCc3ccco3)nc21 | active: 20 µM |  |
| CS(=O)(=O)Nc1cccc(-c2cncnc2NCc2cccnc2)c1 | inconclusive [activator, single point] |  |
| Cc1cc(Nc2ccccc2)n(CCC#N)n1 | inconclusive [activator, partial curve] |  |
| CC(=O)N1c2c(cc(Br)cc2S(=O)(=O)NCC2COc3ccccc3O2)CC1C (stereo not given) | inconclusive [activator, single point] |  |
| Cc1cccc(-c2nc(CS(=O)CC(=O)NCCCSC3CCCCC3)c(C)o2)c1 (stereo not given) | inconclusive [activator, partial curve] |  |
| CCC(Sc1nc(N)cc(=O)[nH]1)C(=O)NC(C(=O)OC)c1ccccc1 (stereo not given) | inconclusive [activator, single point] |  |
| O=C(c1sc2ccccc2c1Cl)N(Cc1ccco1)C1CCS(=O)(=O)C1 (stereo not given) | inconclusive [activator, partial curve] |  |
| c1ccc(OCc2nn3c(-c4n[nH]c5c4CCC5)nnc3s2)cc1 | inconclusive [activator, single point] |  |
| CC(C)(C[C@@]1(C)NC(=O)NC1=O)OCc1ccccc1 |  | inactive: -1.78% [at 11.4 µM] |
| CN(C)CCNS(=O)(=O)c1ccc(Cl)cc1 | inconclusive [activator, single point] |  |
| CCn1cc(C(=O)NCC2CCCO2)c(=O)c2cc(S(=O)(=O)N(C)C)ccc21 (stereo not given) | inconclusive [activator, single point] |  |
| CN(C)S(=O)(=O)c1ccc(N2CCCC2)c(C(=O)Nc2ccccc2N2CCOCC2)c1 | inconclusive [activator, partial curve] |  |
| O=C(CSCC(=O)N1CCCCC1)OCC(=O)c1c[nH]c2ccccc12 | inconclusive [activator, single point] |  |
| CCOC(=O)c1sc(NC(=O)C2CCCO2)c(C(=O)OCC)c1C (stereo not given) | inconclusive [activator, single point] |  |
| CC(=O)c1ccc(NC2OC(CO)C(O)C(O)C2O)cc1 (stereo not given) | inconclusive [activator, single point] |  |
| CC(O)c1nc2ccccc2n1C/C=C/c1ccccc1 (stereo not given) | inconclusive [activator, partial curve] |  |
| Cc1ccc2c(c1)N(CC(=O)OC(CC(C)C)C(=O)NC1CCCC1)C(=O)CO2 (stereo not given) | inconclusive [activator, partial curve] |  |
| COc1ccc2c(c1)c(CC(=O)O)c(C)n2Cc1ccc(F)cc1 | inconclusive [activator, single point] |  |
| Cc1cc(C(=O)COc2cccc(-n3cnnn3)c2)c(C)n1-c1ccccc1 | active: 25.1 µM |  |
| CC(C(=O)NCc1ccc2c(c1)OCO2)N1c2cccc3cccc(c23)S1(=O)=O (stereo not given) | inconclusive [activator, full curve, poor fit] |  |
| CC(C)NC(=O)N1CC[C@@]2(CCCN(C(=O)c3cccc(F)c3)C2)C1 | inconclusive [activator, single point] |  |
| Cc1[nH]c(=O)[nH]c(=O)c1S(=O)(=O)Nc1ccc(Oc2ccccc2)cc1 | inconclusive [activator, full curve] |  |

| Structure (SMILES) | Potency | activation |
| --- | --- | --- |
| O=C(c1ccco1)N1CCC2(CC1)CN(Cc1cc(C(F)(F)F)cc(C(F)(F)F)c1)C2 | active: 15.8 µM |  |
| COc1cc2ccc(=O)oc2c(O)c1O | inactive |  |
| c1ccc2sc(N3CCN(Cc4nnnn4CC4CCCO4)CC3)nc2c1 (stereo not given) | active: 25.1 µM |  |
| Cc1oc(/N=C/c2c(O)ccc3ccccc23)c(C#N)c1C | inconclusive [activator, single point] |  |
| CCOc1ccccc1CNC(=O)C1CCN(C(=O)c2sccc2-n2cccc2)CC1 | inactive |  |
| O=C(CSc1nc2ccccc2o1)Nc1ccc(N2CCOCC2)c(Cl)c1 | inconclusive [activator, full curve] |  |
| O=C(Cn1ncc2c1-c1ccccc1OC2)N(Cc1ccco1)C1CCCCC1 | inconclusive [activator, partial curve] |  |
| CC1CCN(c2nc3c(c(=O)n(C)c(=O)n3C)n2CCSc2nc3ccccc3s2)CC1 | inconclusive [activator, single point] |  |
| COC(=O)c1cccc(COC(=O)c2ccccc2NC(=O)c2ccco2)c1 | inconclusive [activator, partial curve] |  |
| COCn1c2ccccc2c2nnc(C(=O)O)nc21 |  | inactive: 0.245% [at 11.4 µM] |
| CCOc1ccc2[nH]c(=O)c(CN(CCO)C(c3nnnn3C3CCCCC3)C(C)C)cc2c1 (stereo not given) | inconclusive [activator, partial curve] |  |
| C[N+]1(CCC[N+]2(C)C[C@H]3[C@H](C2)[C@H]2C=C[C@@H]3CC2)CCOCC1 (stereo not given in full) |  | inactive: -10.5% [at 11.4 µM] |
| CCCC(O)(CCN1CCOCC1)c1ccc(Br)cc1 (stereo not given) | inconclusive [activator, single point] |  |
| Cc1ccc(-c2nnc(N3CCN(c4ccccn4)CC3)c3ccccc23)cc1 | inactive |  |
| O=S(=O)(Nc1ccc(-c2nc3cccnc3s2)cc1)c1cccs1 | inconclusive [activator, single point] |  |
| Cc1ccc2cc(C#N)c(NCCNC(=O)C3CC3)nc2c1C | active: 25.1 µM |  |
| O=C(Cc1ccccc1)Nc1ccc(NC(=O)c2ccco2)nc1 | inactive |  |
| CCNc1ncc2nc(-c3ccc(F)cc3)c(=O)n(C)c2n1 | inconclusive [activator, partial curve] |  |
| Cc1ccccc1-c1nc(N(C)C)c2ccccc2n1 | inconclusive [activator, partial curve] |  |
| O=C(NCCCN1CCCCCC1)[C@@H](c1ccccc1)C1CCCCC1 | active: 15.8 µM |  |
| CCC1(C)CC(=O)N(c2ccc(C(=O)O)c(O)c2)C1=O (stereo not given) | inconclusive [activator, single point] |  |

— PubChem BioAssay AID938 (National Center for Advancing Translational Sciences (NCATS), 2007)
